From the supplement of paper PMC8728848
Some of the results follow.

Legend:
Test in all cases: glycan array binding signal (z-score within array); higher = stronger binding
Conditions in all cases: glycan notation: IUPAC condensed, linker removed
Fuc(a1-3)GlcNAc = molecular target: Fuc(a1-3)GlcNAc
Method in brief: (§1)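 Glycan array data came from 3228 arrays in the Consortium for Functional Glycomics database, and only arrays with an available protein sequence were kept. Glycan names were put into IUPAC-condensed notation, and columns mapping to the same glycan were averaged. The binding signal is a within-array Z-score, averaged across arrays of one protein sequence run at different concentrations or buffers and across linkers. A negative Z-score can be read as non-binding.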

[1] = molecular target: Fuc(a1-3)[Gal(b1-4)]Glc6S
Method in brief: as §1

[2] = molecular target: Fuc(a1-3)[Gal(b1-4)]GlcNAc
Method in brief: as §1

[3] = molecular target: Fuc(a1-3)[Gal(b1-4)]GlcNAc(b1-2)Man
Method in brief: as §1

[4] = molecular target: Fuc(a1-3)[Gal(b1-4)]GlcNAc(b1-2)Man(a1-3)[Fuc(a1-3)[Gal(b1-4)]GlcNAc(b1-2)Man(a1-6)]Man(b1-4)GlcNAc(b1-4)GlcNAc
Method in brief: as §1

[5] = molecular target: Fuc(a1-3)[Gal(b1-4)]GlcNAc(b1-2)Man(a1-3)[Fuc(a1-3)[Gal(b1-4)]GlcNAc(b1-2)Man(a1-6)]Man(b1-4)GlcNAc(b1-4)[Fuc(a1-6)]GlcNAc
Method in brief: as §1

[6] = molecular target: Fuc(a1-3)[Gal(b1-4)]GlcNAc(b1-3)Gal(b1-3)[Fuc(a1-4)]GlcNAc
Method in brief: as §1

[7] = molecular target: Fuc(a1-3)[Gal(b1-4)]GlcNAc(b1-3)Gal(b1-4)[Fuc(a1-3)]GlcNAc
Method in brief: as §1

[8] = molecular target: Fuc(a1-3)[Gal(b1-4)]GlcNAc(b1-3)Gal(b1-4)[Fuc(a1-3)]GlcNAc(b1-3)Gal(b1-4)[Fuc(a1-3)]GlcNAc
Method in brief: as §1

[9] = molecular target: Fuc(a1-3)[Gal(b1-4)]GlcNAc(b1-3)GalNAc
Method in brief: as §1

[10] = molecular target: Fuc(a1-3)[Gal(b1-4)]GlcNAc(b1-6)GalNAc
Method in brief: as §1

[11] = molecular target: Fuc(a1-3)[Gal(b1-4)]GlcNAc(b1-6)[Gal(b1-3)GlcNAc(b1-3)]Gal(b1-4)Glc
Method in brief: as §1

[12] = molecular target: Fuc(a1-3)[Gal(b1-4)]GlcNAc6S
Method in brief: as §1

[13] = molecular target: Fuc(a1-3)[Gal3S(b1-4)]Glc
Method in brief: as §1

[14] = molecular target: Fuc(a1-3)[Gal3S(b1-4)]GlcNAc
Method in brief: as §1

[15] = molecular target: Fuc(a1-3)[Gal3S(b1-4)]GlcNAc6S
Method in brief: as §1

[16] = molecular target: Fuc(a1-3)[GalNAc(b1-4)]GlcNAc
Method in brief: as §1

[17] = molecular target: Fuc(a1-3)[GalNAc(b1-4)]GlcNAc6S
Method in brief: as §1

Fuc(a1-4)GlcNAc = molecular target: Fuc(a1-4)GlcNAc
Method in brief: as §1

Fuc(b1-3)GlcNAc = molecular target: Fuc(b1-3)GlcNAc
Method in brief: as §1

Gal(a1-2)Gal = molecular target: Gal(a1-2)Gal
Method in brief: as §1

Gal(a1-3)Gal = molecular target: Gal(a1-3)Gal
Method in brief: as §1

Gal(a1-3)Gal(b1-3)GlcNAc = molecular target: Gal(a1-3)Gal(b1-3)GlcNAc
Method in brief: as §1

[18] = molecular target: Gal(a1-3)Gal(b1-3)GlcNAc(b1-2)Man
Method in brief: as §1

[19] = molecular target: Gal(a1-3)Gal(b1-3)GlcNAc(b1-2)Man(a1-3)[Gal(a1-3)Gal(b1-3)GlcNAc(b1-2)Man(a1-6)]Man(b1-4)GlcNAc(b1-4)GlcNAc
Method in brief: as §1

[20] = molecular target: Gal(a1-3)Gal(b1-3)GlcNAc(b1-3)GalNAc
Method in brief: as §1

[21] = molecular target: Gal(a1-3)Gal(b1-3)GlcNAc(b1-6)GalNAc
Method in brief: as §1

[22] = molecular target: Gal(a1-3)Gal(b1-3)[Fuc(a1-4)]GlcNAc(b1-2)Man(a1-3)[Gal(a1-3)Gal(b1-3)[Fuc(a1-4)]GlcNAc(b1-2)Man(a1-6)]Man(b1-4)GlcNAc(b1-4)GlcNAc
Method in brief: as §1

Gal(a1-3)Gal(b1-4)Glc = molecular target: Gal(a1-3)Gal(b1-4)Glc
Method in brief: as §1

Gal(a1-3)Gal(b1-4)GlcNAc = molecular target: Gal(a1-3)Gal(b1-4)GlcNAc
Method in brief: as §1

B1: PX15618B-bfa-464-25-464 (Bacteroides fragilis) (protein)
chain: DQEPPLYVNENDIFTSPTRIEATLNGLYAAIKNTGTKSLMGGKSYLVFDNRGDDVINISNNLVTLFNTYNMNVGITDAENADTWTYAYLAINKVNTFLQSLEGAREVAGENYDRYVQEAKFVRALAYYYLNNLYPTPYSVNPDAKSVPLRLTAEAGTENNNMPRSTVKQIYEHILSDLENISALDTEVNTYTGVTHATQAAANMLKMRVYMAMNEWDKAITAGELVTGYSLPEDVTLIYKAPYFSQESIFSLPMADTNIPNTQQSLAEYYYDGKIMLIDTKSGIMSKPDYSLATDKRIIAFKGEKDLLMKFTDAKTKLQWVPIFRYAETLLDLAECYANKAGGEATAKSLLKQVRGRSVDAATDPLNIDNLSGDALKEAIYNEKRLEFIGEGIRGIDIMRRGEHFIKVGENETINVGPSDEKYTWPIPQVELLLNKDINK
Which results are given for B1?
glycan array binding signal (z-score) (Fuc(a1-3)GlcNAc): 0.247; glycan array binding signal (z-score) [1]: 0.547; glycan array binding signal (z-score) [2]: -0.675; glycan array binding signal (z-score) [3]: -0.777; glycan array binding signal (z-score) [4]: 0.386; glycan array binding signal (z-score) [5]: 0.106; glycan array binding signal (z-score) [6]: 0.394; glycan array binding signal (z-score) [7]: -0.087; glycan array binding signal (z-score) [8]: -0.73; glycan array binding signal (z-score) [9]: 0.467; glycan array binding signal (z-score) [10]: -0.191; glycan array binding signal (z-score) [11]: -0.493; glycan array binding signal (z-score) [12]: -0.315; glycan array binding signal (z-score) [13]: -0.196; glycan array binding signal (z-score) [14]: -0.118; glycan array binding signal (z-score) [15]: -0.473; glycan array binding signal (z-score) [16]: 1.31; glycan array binding signal (z-score) [17]: 0.174; glycan array binding signal (z-score) (Fuc(a1-4)GlcNAc): -0.529; glycan array binding signal (z-score) (Fuc(b1-3)GlcNAc): 0.689; glycan array binding signal (z-score) (Gal(a1-2)Gal): -0.656; glycan array binding signal (z-score) (Gal(a1-3)Gal): 0.348; glycan array binding signal (z-score) (Gal(a1-3)Gal(b1-3)GlcNAc): -0.21; glycan array binding signal (z-score) [18]: 0.341; glycan array binding signal (z-score) [19]: 0.622; glycan array binding signal (z-score) [20]: 0.054; glycan array binding signal (z-score) [21]: 0.328; glycan array binding signal (z-score) [22]: 0.331; glycan array binding signal (z-score) (Gal(a1-3)Gal(b1-4)Glc): -0.53; glycan array binding signal (z-score) (Gal(a1-3)Gal(b1-4)GlcNAc): 0.209
